# From the supplement of paper PMC8728848
# This is one part of the list.
# B1: NKR-PIC (Mus musculus) (protein)
# chain: GTGQKPSREKCCVFIQENLNKTTDCSVNLECPQDWLLHRDKCFHVSQVSNTWEEGQADCGRKGATLLLIQDQEELRFLLDSIKEKYNSFWIGLRFTLPDMNWKWINGTTFNSDVLKITGVTENGSCASILGDKVTPESCASDNRWICQKELNHETPSNDSGT
# Key:
# Experiment in all cases: glycan array binding signal (z-score within array); higher = stronger binding
# Details in all cases: glycan notation: IUPAC condensed, linker removed
# [1] = target: Neu5Ac(a2-3)Gal(b1-3)GlcNAc6S
# Procedure, shortened: (§1)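 Glycan array binding is given as a within-array Z-score, which can be read as non-binding when negative. The arrays, 3228 of them, came from the Consortium for Functional Glycomics database and were retained only where the protein sequence was available. Z-scores were averaged across arrays of the same protein sequence at different concentrations or buffers and across linkers.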
# [2] = target: Neu5Ac(a2-3)Gal(b1-3)[Fuc(a1-4)]GlcNAc
# Procedure, shortened: as §1
# [3] = target: Neu5Ac(a2-3)Gal(b1-3)[Fuc(a1-4)]GlcNAc(b1-3)Gal(b1-3)[Fuc(a1-4)]GlcNAc
# Procedure, shortened: as §1
# [4] = target: Neu5Ac(a2-3)Gal(b1-3)[Fuc(a1-4)]GlcNAc(b1-3)Gal(b1-4)[Fuc(a1-3)]GlcNAc
# Procedure, shortened: as §1
# [5] = target: Neu5Ac(a2-3)Gal(b1-3)[GlcNAc(b1-6)]GalNAc
# Procedure, shortened: as §1
# [6] = target: Neu5Ac(a2-3)Gal(b1-3)[Neu5Ac(a2-6)]GalNAc
# Procedure, shortened: as §1
# [7] = target: Neu5Ac(a2-3)Gal(b1-3)[Neu5Ac(a2-6)]GlcNAc(b1-3)[Fuc(a1-3)[Gal(b1-4)]GlcNAc(b1-6)]Gal(b1-4)Glc
# Procedure, shortened: as §1
# [8] = target: Neu5Ac(a2-3)Gal(b1-3)]Neu5Ac(a2-3)Gal(b1-4)]GlcNAc
# Procedure, shortened: as §1
# Neu5Ac(a2-3)Gal(b1-4)Glc = target: Neu5Ac(a2-3)Gal(b1-4)Glc
# Procedure, shortened: as §1
# [9] = target: Neu5Ac(a2-3)Gal(b1-4)GlcNAc
# Procedure, shortened: as §1
# [10] = target: Neu5Ac(a2-3)Gal(b1-4)GlcNAc(b1-2)Man
# Procedure, shortened: as §1
# [11] = target: Neu5Ac(a2-3)Gal(b1-4)GlcNAc(b1-2)Man(a1-3)[GlcNAc(b1-4)][Neu5Ac(a2-3)Gal(b1-4)GlcNAc(b1-2)Man(a1-6)]Man(b1-4)GlcNAc(b1-4)GlcNAc
# Procedure, shortened: as §1
# [12] = target: Neu5Ac(a2-3)Gal(b1-4)GlcNAc(b1-2)Man(a1-3)[Neu5Ac(a2-3)Gal(b1-4)GlcNAc(b1-2)Man(a1-6)]Man(b1-4)GlcNAc(b1-4)GlcNAc
# Procedure, shortened: as §1
# [13] = target: Neu5Ac(a2-3)Gal(b1-4)GlcNAc(b1-2)Man(a1-3)[Neu5Ac(a2-3)Gal(b1-4)GlcNAc(b1-2)Man(a1-6)]Man(b1-4)GlcNAc(b1-4)[Fuc(a1-6)]GlcNAc
# Procedure, shortened: as §1
# [14] = target: Neu5Ac(a2-3)Gal(b1-4)GlcNAc(b1-2)Man(a1-3)[Neu5Ac(a2-6)Gal(b1-4)GlcNAc(b1-2)Man(a1-6)]Man(b1-4)GlcNAc(b1-4)GlcNAc
# Procedure, shortened: as §1
# [15] = target: Neu5Ac(a2-3)Gal(b1-4)GlcNAc(b1-2)[Neu5Ac(a2-3)Gal(b1-4)GlcNAc(b1-4)]Man(a1-3)[GlcNAc(b1-4)][Neu5Ac(a2-3)Gal(b1-4)GlcNAc(b1-2)[Neu5Ac(a2-3)Gal(b1-4)GlcNAc(b1-6)]Man(a1-6)]Man(b1-4)GlcNAc(b1-4)GlcNAc
# Procedure, shortened: as §1
# [16] = target: Neu5Ac(a2-3)Gal(b1-4)GlcNAc(b1-2)[Neu5Ac(a2-3)Gal(b1-4)GlcNAc(b1-4)]Man(a1-3)[GlcNAc(b1-4)][Neu5Ac(a2-3)Gal(b1-4)GlcNAc(b1-4)Man(a1-6)]Man(b1-4)GlcNAc(b1-4)GlcNAc
# Procedure, shortened: as §1
# [17] = target: Neu5Ac(a2-3)Gal(b1-4)GlcNAc(b1-2)[Neu5Ac(a2-3)Gal(b1-4)GlcNAc(b1-6)]Man(a1-6)[Neu5Ac(a2-3)Gal(b1-4)GlcNAc(b1-2)Man(a1-3)]Man(b1-4)GlcNAc(b1-4)GlcNAc
# Procedure, shortened: as §1
# [18] = target: Neu5Ac(a2-3)Gal(b1-4)GlcNAc(b1-2)[Neu5Ac(a2-3)Gal(b1-4)GlcNAc(b1-6)]Man(a1-6)[Neu5Ac(a2-3)Gal(b1-4)GlcNAc(b1-2)Man(a1-3)][GlcNAc(b1-4)]Man(b1-4)GlcNAc(b1-4)GlcNAc
# Procedure, shortened: as §1
# [19] = target: Neu5Ac(a2-3)Gal(b1-4)GlcNAc(b1-3)Gal
# Procedure, shortened: as §1
# [20] = target: Neu5Ac(a2-3)Gal(b1-4)GlcNAc(b1-3)Gal(b1-3)GlcNAc
# Procedure, shortened: as §1
# [21] = target: Neu5Ac(a2-3)Gal(b1-4)GlcNAc(b1-3)Gal(b1-4)GlcNAc
# Procedure, shortened: as §1
# [22] = target: Neu5Ac(a2-3)Gal(b1-4)GlcNAc(b1-3)Gal(b1-4)GlcNAc(b1-2)Man(a1-3)[Neu5Ac(a2-3)Gal(b1-4)GlcNAc(b1-3)Gal(b1-4)GlcNAc(b1-2)Man(a1-6)]Man(b1-4)GlcNAc(b1-4)GlcNAc
# Procedure, shortened: as §1
# [23] = target: Neu5Ac(a2-3)Gal(b1-4)GlcNAc(b1-3)Gal(b1-4)GlcNAc(b1-3)Gal(b1-4)GlcNAc
# Procedure, shortened: as §1
# [24] = target: Neu5Ac(a2-3)Gal(b1-4)GlcNAc(b1-3)Gal(b1-4)GlcNAc(b1-3)Gal(b1-4)GlcNAc(b1-2)Man(a1-3)[Neu5Ac(a2-3)Gal(b1-4)GlcNAc(b1-3)Gal(b1-4)GlcNAc(b1-3)Gal(b1-4)GlcNAc(b1-2)Man(a1-6)]GalNAc
# Procedure, shortened: as §1
# [25] = target: Neu5Ac(a2-3)Gal(b1-4)GlcNAc(b1-3)Gal(b1-4)GlcNAc(b1-3)GalNAc
# Procedure, shortened: as §1
# [26] = target: Neu5Ac(a2-3)Gal(b1-4)GlcNAc(b1-3)Gal(b1-4)GlcNAc(b1-3)[Neu5Ac(a2-3)Gal(b1-4)GlcNAc(b1-3)Gal(b1-4)GlcNAc(b1-6)]GalNAc
# Procedure, shortened: as §1
# [27] = target: Neu5Ac(a2-3)Gal(b1-4)GlcNAc(b1-3)Gal(b1-4)GlcNAc(b1-6)[Gal(b1-3)]GalNAc
# Procedure, shortened: as §1
# [28] = target: Neu5Ac(a2-3)Gal(b1-4)GlcNAc(b1-3)Gal(b1-4)[Fuc(a1-3)]GlcNAc
# Procedure, shortened: as §1
# [29] = target: Neu5Ac(a2-3)Gal(b1-4)GlcNAc(b1-3)GalNAc
# Procedure, shortened: as §1
binder,measurement,setting,value
B1,glycan array binding signal (z-score),[1],-0.243
same,glycan array binding signal (z-score),[2],-0.289
same,glycan array binding signal (z-score),[3],-0.319
same,glycan array binding signal (z-score),[4],-0.258
same,glycan array binding signal (z-score),[5],-0.305
same,glycan array binding signal (z-score),[6],-0.322
same,glycan array binding signal (z-score),[7],-0.396
same,glycan array binding signal (z-score),[8],-0.326
same,glycan array binding signal (z-score),Neu5Ac(a2-3)Gal(b1-4)Glc,-0.35
same,glycan array binding signal (z-score),[9],-0.12
same,glycan array binding signal (z-score),[10],-0.253
same,glycan array binding signal (z-score),[11],1.11
same,glycan array binding signal (z-score),[12],-0.102
same,glycan array binding signal (z-score),[13],-0.155
same,glycan array binding signal (z-score),[14],-0.221
same,glycan array binding signal (z-score),[15],-0.358
same,glycan array binding signal (z-score),[16],-0.296
same,glycan array binding signal (z-score),[17],-0.256
same,glycan array binding signal (z-score),[18],0.806
same,glycan array binding signal (z-score),[19],-0.363
same,glycan array binding signal (z-score),[20],-0.338
same,glycan array binding signal (z-score),[21],-0.189
same,glycan array binding signal (z-score),[22],-0.258
same,glycan array binding signal (z-score),[23],0.344
same,glycan array binding signal (z-score),[24],-0.223
same,glycan array binding signal (z-score),[25],-0.354
same,glycan array binding signal (z-score),[26],-0.348
same,glycan array binding signal (z-score),[27],-0.354
same,glycan array binding signal (z-score),[28],-0.401
same,glycan array binding signal (z-score),[29],-0.331
